In the RNAGym collection of RNA variant scans (doi:10.1093/nar/gkz1192):
Read counts are not given, so values of variants with three or more changes are uncertain.

B1: CPEB3 Ribozyme (parent)
chain: UAACAGGGGGCCACAGCAGAAGCGUUCACGUCGCAGCCCCUGUCAGAUUCUGGUGAAUCUGCGAAUUCUGCUGUAUAUCUC

Variants of: B1
Assay: self-cleavage, relative activity (ratio to wild type); higher = more cleavage; in vitro, sequencing
Summary of the method: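 After error-prone PCR and barcoding, CPEB3 ribozyme mutant libraries were transcribed with T7 RNA polymerase at 37°C for 5 hours, then given 15 min with DNase I before an EDTA stop, and they cleaved during both steps. Reverse transcription with template switching preceded Illumina sequencing. Relative activity divides a variant's cleaved/total read fraction by the unmutated ribozyme's. At least 5 reads were required per variant, and three batches were averaged.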

Variant | self-cleavage
ACACAGGGGGCCACAGCAGAAGCGUUCACGUCGCAGCCCCUGUCAGAUUCUGGUGAAUCUGCGAGUUCUGCUGUAUAUCUC | 0.5
AGGCGGGGGGCCUCAGCAGACGCGUUCACGUCGCAGCUCCUGUCAGAUUCUGGUGAAUCUGCGAAUUCUGCUGUAUAUCUC | 0.22
AGACAGGGGGCCGCAGCAGAAGCGUUCACGUCGCAGCCCUUGUCAGAUUCUGGUGAAUCCGCGAAUUCCGCUGUAUAUCUC | 0.14
AGACAGGGGGCCACAGCUGAAGCGUUCACGUCGCAGCCCCUGUCAGAUACUGGUGAAUCUGCGAAUUCUGCUGUAUAUCUC | 0.22
AGACAGGGGGCCACAGCUGAAGCGUUCACGUCGCAGCCCCUGUCAGAUUCUGGUGAACCUGCGAAUUCUGCUGUAUAUCUC | 0.22
AGACAGGGGGCCACAGCAGGAGCGUUCACGUCGCAGCCCCUGUCAGAUUCUGGUGAAUCCGCGAAUUCUGCUGUAUAUCUC | 0.11
AGACAUGAGGCCACAGCAGAAGCGUUCACGUCGCAGCCCCUGUCAGACUCUGGUGGAUCUGCGAAUUCUGCUGUAUACCUC | 0.05
AGACAGGGGGCCACAGCAGAAGCGUUCACGCCGCAGCCCCUGUCAGAUUCUGGUGAAUCUGCGAAUUCUGCUGUAUAUCUC | 0.85
AGACAGGGGGCCACAGCAGAAGCGUUCACGUCGCAGCCCCUGUCAGAUCCUGGUGAAUCUGCGAAUUCUGCUGUAUAUCUC | 0.25
AACCAGGGGGCCACAGCGGAAGCGUUCACGUCGCAGCCCCUGUCAGAUUCUGGUGAAUCUGCGAAUUCUGCUGUAUAUCUC | 0.83
AACCAGGGAGCCACAGCGGAAGCGUUCGCGUCGCUGCCCCCGUCAGAUUCUGGUGAAUCUGCGAAUUCUGCUGUAUAUCUC | 0.04
AACCAGGGGGCCACAGCAGAAGCGACCACGUCGCAGCCCCUGUCAGAUUCUGGUGAAUCUGCGAACUCUGCUGUAUAUCUC | 0.12
AACCAGGGGGCCACAGCAGAAGCGUCCACGUCGCAGCCCCUGUCAGAUUCUGGCGAAUCUGCGAAUUCUGCUGUAUAUCUC | 0.87
AAGCAGGGGGCCACAGCAGAAGCGUUCUCGUCGCAGCCCCUGUCAGAUUCAGGUGAGUCUGCGAAUUCUGCUGUGUAUCUC | 0.38
AAGCAGGGGGCCACAGCAGAAGUGUUCACGUCGCUGCCCCUGUCAGAUUCUGGUGAAUCUGCGAAUUCUGCUGUAAAUCUC | 0.17
AAGCAGGAGGCCACAGCAGAAGCGUUCACGUCGCAGCCCCUGUCAGAUUCUGGUGAAUCUGCGAAUUCUGCUGUAUAUCUC | 0.26
AAGCAGGGGGCCACAUCAGAAGCGUUCGCGUCGCAGCCCCUGUCAGAUUCUGGUGAAUCUGCGAAUUCUGCUGUAUAUCUC | 0.76

Variant | self-cleavage
AAGCAGGGGGCCACAGCAGAAGCGUUCACGUCGCAGCCCCUGUCAGAUUCUGGUGAAUCUGCAUAUUCUGCUGUAUAUCUC | 0.27
AAGCAGGGGGCCACAGCAGAAGCGUUCACGUCGCAGCCCCAGUCAGAUUCUGGUGAAUCUGCGAAUUCCGAUGUAUAACUC | 0.26
AAACCGGGGGCCACUGCAGAAGCGUUCACGUCGCGGCCCCUGUCAGAUUCUGGUGAAUCUGCAAAUCCUGCUGAAUAUCUC | 0.47
AAACGGGGGGCCACUGCAGAGGCGUUCACGUCGCAGUCCCUGUCAGAUUCUGGUGAAACUGCGGAUUCUGCUGUAUAUCUC | 0.06
AAACGGGGGGUCACUGCAGAAGCGUUCACGUCGCAGCCCCUGUCAGAUUCAGGUGAAUCUGCGAAUUCUGCUGUAUAUCUC | 0.15
AAACGGGGGGCCACAUCAGAAGCGCUCACGUUGCGCCCCCUGUCAGAUUCUGGUGAAUCUGCGAAUUCUGCUGUAUAUCUC | 0.09
AAACGGGGGGCCACAGCAGAAGCUUUCACGUCGCAGCCCCUGUCAGAUUCUGGUGAAUCUGCGAGUUCCGCUGUAUAUCUC | 0.09
AAACGGGGGGCCACAGCAGAAGCGCUCACGUCGCAGCCCCUGUCAGAUUCUGGCGAAUCUGCGAAUUCUGCUGUAUAUCUC | 0.14
AAACGGGGGGCCACAGCAGAAGCGUUCACGUCGCAGCCCCUGUCAGACUCUGGUGAAUCUGCGAAUUCUGCUGUAUAUCUC | 0.13
AAACGGGGGGCCACAGCAGAAGCGUUCACGUCGCAGCCCCUGUCAGAUUCUGGUGAAUCUGCGAAUUCUGCUGUAUAUCCC | 0.86
AAACUGGGGGCCACAGCAAAAGCGUUCACGUUGCAGCCCCUGUCAGAUUCUGGUGAAUCUGCGAAUUCUGCUGUAUAUCUC | 0.15
AAACUGGGGGCCACAGCAGAAGCGUCCACGUCGCAGCCCCUGUCAGAUUCUGGAGGAUCUGCGAAUUCUGCUGUAUAUCUC | 0.36
AAACUGGGGGCCACAGCAGAAGCGUUCACGUCGCAGCCCCUGUCAGAUUCUGGUGAAUCUGCGAAUUCUGCCGUAUAUCUC | 1.21
AAACAGGGGGCCGCAGCAGGAGCGUUCACGUCGCAGCCCCUGUCAGAUUCUGGUGAAUCCGCGAGUUCUGCUGUAUACCUC | 0.17
AAACAGGGGGCCGCAGCAGAUGCGAUCACGUCGCAGCCCCUGUCAAAUUCUGGUGAAUCUGCGGAUUCUGCUGUAUAUCUC | 0.07
AAACAGGGGGCCGCAGCAGAAGCGUUCACGUCGCAGCCCCUGUCAGAUUCUGGUGAAUCUGCGGAUUCUGCUGUAUAUCUC | 0.75
AAACAGGGGGCCGCAGCAGAAGCGUUCACGUCGCAGCCCCGGUCAGAUUCCGGUGAAUCUGCGAAUUCUGCUGUAUAUCUC | 0.32
